About 16,000 (7.3%) of roughly 220,000 compounds were called active. Inconclusive means that the source gave no clear call. Such entries were picked first, then a sample of the others. Calls come from the whole dose curve; as a rule, active = well fitted inhibition curve with a large enough effect (not every such curve was filed as active); inconclusive = small, poorly fitted or top-dose-only effect, or another doubt; inactive = no such curve, though single readings can be large or run the other way. Potencies of inconclusive entries are doubtful fits and often do not repeat.
biological target: Aldehyde dehydrogenase 1A1 (Homo sapiens) (UniProt P00352); assay: qHTS Assay for Inhibitors of Aldehyde Dehydrogenase 1 (ALDH1A1); settings: Purified ALDH1A1, NADH fluorescence, propionaldehyde substrate; series mostly up to 75.3 µM
Chain of UniProt P00352 (P00352 whole entry, looked up): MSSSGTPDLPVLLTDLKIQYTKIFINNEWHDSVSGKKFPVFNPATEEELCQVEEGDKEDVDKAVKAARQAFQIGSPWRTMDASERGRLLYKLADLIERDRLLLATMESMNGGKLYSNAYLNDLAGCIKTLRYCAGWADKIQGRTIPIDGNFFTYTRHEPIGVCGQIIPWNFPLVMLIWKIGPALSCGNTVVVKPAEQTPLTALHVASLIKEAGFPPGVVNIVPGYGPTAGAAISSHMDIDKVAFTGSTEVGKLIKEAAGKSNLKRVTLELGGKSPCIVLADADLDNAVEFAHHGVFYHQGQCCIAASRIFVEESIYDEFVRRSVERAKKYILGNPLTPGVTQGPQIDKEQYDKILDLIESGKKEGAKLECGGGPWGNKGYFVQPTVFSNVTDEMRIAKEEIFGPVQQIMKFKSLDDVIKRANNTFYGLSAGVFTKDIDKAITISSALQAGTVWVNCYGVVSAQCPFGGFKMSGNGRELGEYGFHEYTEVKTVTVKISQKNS
Potency is the fitted concentration of half-maximal effect; tags give direction and shape of the fitted curve.

Potency, active:
COc1ccc(C)cc1NC(=O)C(c1ccccc1)N1CCNC(=O)C1 (stereo unspecified) 17.8 µM, O=C(CSc1ncnc2sc3c(c12)CCCC3)c1ccco1 22.4 µM, N#CCCN(Cc1cccnc1)C(=S)NC(=O)c1ccc(S(=O)(=O)N2CCCC2)cc1 14.1 µM, COc1ccc(CNc2ccc(C)c(C)c2)c(OC)c1OC 12.6 µM, Cc1ccc(-n2sc3ccccc3c2=O)cc1S(=O)(=O)N1CCCCC1 2.24 µM, Oc1ccccc1/C=N/n1c(-c2cccs2)n[nH]c1=S 15.8 µM, CN(C(=O)CSc1nc2ccc(Br)cc2c(=O)n1Cc1ccco1)C1CCS(=O)(=O)C1 (stereo unspecified) 12.6 µM, CCn1cc(CNC(=S)Nc2cccc3ccccc23)cn1 6.31 µM, CC(C)Nc1nc(Cl)nc(N(C#N)CN2C(=O)c3ccccc3S2(=O)=O)n1 22.4 µM, COc1ccccc1-c1noc(CCC(=O)Nc2ccccc2Cl)n1 28.2 µM, O=C(Nc1nnc(-c2ccco2)o1)c1ccc(S(=O)(=O)N2CCCC2)cc1 35.5 µM, COC(=O)C1=C(C)N(CCc2c[nH]c3ccccc23)C(=O)/C1=C\N(C)C 12.6 µM, COc1ccc(S(=O)(=O)NCCSc2ccc(C)cc2)cc1OC 5.01 µM, CCOCCOC(=O)c1[nH]c2c(c1C)C(=O)CC(c1ccc(N(C)C)cc1)C2 (stereo unspecified) 12.6 µM, Cc1ccc(OCC(=O)N/N=C/c2ccco2)cc1 28.2 µM, Cc1nn(C)cc1S(=O)(=O)N1CCN(Cc2cccc(Cl)c2)CC1 22.4 µM, N#CC(C#N)=Cc1ccc(OCC(=O)N2CCOCC2)cc1 8.91 µM, CCOc1ccc2nc(C(=O)N3CCCC(C)C3)sc2c1 (stereo unspecified) 14.1 µM

Potency, inconclusive:
CCOC(=O)c1c2n(c3ccc(O)cc13)CCCCC2 25.1 µM [inhibitor, single point], C=C(C)C1CC=C(C)/C(=N\NC(=O)CNc2cccc3ccccc23)C1 (stereo unspecified) 28.2 µM [inhibitor, single point], Cc1cccc(C(=O)OCC(=O)Nc2sc3c(c2C#N)CCC3)c1 39.8 µM [inhibitor, single point], Cc1ccc(-c2nn(-c3ccccc3)cc2/C=N/NC(=O)c2ccncc2)o1 25.1 µM [inhibitor, partial curve], COc1ccc(-c2cc(C(F)F)n3ncc(C(=O)N4CCCCC4)c3n2)cc1 31.6 µM [inhibitor, partial curve], CC(=O)c1ccc(N2CCN(CC(O)COCc3ccco3)CC2)cc1 (stereo unspecified) 44.7 µM [inhibitor, single point], COc1cc(C(=S)N2CCOCC2)ccc1OS(=O)(=O)c1ccccc1[N+](=O)[O-] 39.8 µM [inhibitor, single point], Cc1ccccc1-c1nccc(NCc2cccs2)n1 0.0398 µM [inhibitor, full curve], O=C(CSc1n[nH]c(=O)n1C1CC1)c1ccc2c(c1)OCCO2 39.8 µM [inhibitor, single point], COc1cc(C)c(C)cc1S(=O)(=O)N1CCN(Cc2ccccc2)CC1 17.8 µM [inhibitor, partial curve], Cc1sc2nc(CSCC(=O)Nc3ccccc3C#N)[nH]c(=O)c2c1C 31.6 µM [inhibitor, single point], Cn1nc(-c2ccc(Cl)cc2)c2cc(C(=O)NCC3CCCO3)sc21 (stereo unspecified) 25.1 µM [inhibitor, partial curve], CCS(=O)(=O)Nc1ccc(C2=NN(C(=O)c3ccco3)C(c3cccc(F)c3)C2)cc1 (stereo unspecified) 25.1 µM [inhibitor, single point], CSc1nnc(-c2ccc(NC(N)=S)cc2)o1 25.1 µM [inhibitor, single point], NC1=NC2(CCN(Cc3ccccc3)CC2)n2c(nc3ccccc32)N1 0.447 µM [inhibitor, partial curve, poor fit], CN(C)c1ccc(CN(C(=O)COc2ccc(F)cc2)C2CCS(=O)(=O)C2)cc1 (stereo unspecified) 28.2 µM [inhibitor, single point], COc1ccc(CC(=O)N2CCCC(CNC(=O)c3ccccc3Cl)C2)cc1 (stereo unspecified) 6.31 µM [inhibitor, partial curve, poor fit], CCOC(=O)Cc1nnc(NC(=O)CSc2nnc3c4ccccc4n(C)c3n2)s1 22.4 µM [inhibitor, partial curve], Cc1nn(-c2ccccc2)c2sc(C(=O)NC3CCCCC3)cc12 39.8 µM [inhibitor, single point], O=C1CC(NCc2ccc(F)cc2)C(=O)N1c1ccccc1 (stereo unspecified) 39.8 µM [inhibitor, single point], N#Cc1c(N)nc2c(c1N)CC(CCl)O2 (stereo unspecified) 39.8 µM [inhibitor, single point], CCCCNS(=O)(=O)c1ccc(OC)c2ncccc12 25.1 µM [inhibitor, partial curve], CCOC(=O)C(=O)/C(=C\N(C)C)c1onc(-c2ccccc2)c1C(=O)OC 39.8 µM [inhibitor, single point], O=C(NCc1ccccc1)c1ccc(CN2CCOCC2)cc1 25.1 µM [inhibitor, single point], CCCN1C(=O)c2cc(C(=O)NCc3cccs3)ccc2C1O (stereo unspecified) 39.8 µM [inhibitor, single point], COc1cccc(/C=C2\Sc3ccc(C(=O)NCc4cccnc4)cc3N(C)C2=O)c1 39.8 µM [inhibitor, single point], CN(C#N)c1nccc(-c2cccs2)n1 39.8 µM [inhibitor, single point], O=C(Cl)c1ccc([N+](=O)[O-])cc1 39.8 µM [inhibitor, single point], Cc1ccc(C(=O)Nc2ccc(N3CCCC3)cc2)c(C)c1 28.2 µM [inhibitor, single point], CCOC(=O)N1CCC(N(CCN(C)C)C(=S)Nc2cc(Cl)cc(Cl)c2)CC1 25.1 µM [inhibitor, single point], CN(C)Cc1ccccc1-c1cncnc1Nc1ccccc1 39.8 µM [inhibitor, single point], N=c1c(C(=O)NCC2CCCO2)cc2c(=O)n3ccccc3nc2n1Cc1cccnc1 (stereo unspecified) 28.2 µM [inhibitor, partial curve], CN1C(=O)N(C)C2=NNC=NC2(O)C1=O (stereo unspecified) 25.1 µM [inhibitor, single point], c1csc(-c2nc3c4ccccc4c4ccccc4c3[nH]2)c1 28.2 µM [inhibitor, partial curve], Cc1ccc(S(=O)(=O)NCCc2ccncc2)cc1 15.8 µM [inhibitor, single point], Cc1ccccc1-n1nc(C)c2cc(C(=O)NCc3cccnc3)sc21 35.5 µM [inhibitor, single point], O=C(NNc1cccc(Cl)n1)Nc1ccc(Cl)cc1 17.8 µM [inhibitor, partial curve], COc1ccc(C(C)=O)cc1COC(=O)C(CO)NS(=O)(=O)c1ccc(Br)cc1 (stereo unspecified) 39.8 µM [inhibitor, single point], COc1cc(OC)cc(C(=O)Nn2cc(C(=O)Nc3ccccc3F)c3ccccc3c2=O)c1 25.1 µM [inhibitor, single point], O=S(=O)(c1ccc(S(=O)(=O)N(Cc2ccc(F)cc2)C2CCCC2)cc1)N1CCCC1 14.1 µM [inhibitor, partial curve]

Potency, inactive:
O=C1CSC(c2cccc(F)c2)N1c1ccc(O)cc1 (stereo unspecified), COC(=O)[C@@]1(Cc2ccccc2)[C@H]2c3cc(C(=O)N(C)C)n(Cc4ccccc4)c3C[C@H]2CN1C(=O)c1ccccc1, COc1ccc(C(=O)N2CCc3cc(OC)c(OC)cc3C2)cc1OC, Cc1ccc(S(=O)(=O)NNC(=S)Nc2c(Cl)cccc2Cl)cc1, Cc1ccc(N2C(=O)CC(N3CCc4ccccc43)C2=O)cc1Cl (stereo unspecified), Nn1c(-c2ccco2)n[nH]c1=S, COc1cc(OC)c(OC)cc1CNCCNC(=O)c1nonc1N, COc1ccc(OCC(=O)Nc2ccc(N3CCCCC3)cc2)cc1, CCCCCC[C@@H](O)C/C=C\CCCCCCCC(=O)O, Cc1occc1C(=O)Nc1nnc(-c2cccs2)s1, CCCCc1nc(Cl)c(CO)n1Cc1ccc(-c2ccccc2-c2nn[nH]n2)cc1, Cc1cc(C)c(C(=O)O)c(CC(C)(C)C(=O)O)c1, CCN1C(=S)SC(=O)C1=C1C=C(C)OC(C)=C1, COCCCNC(=O)Cn1nnc(-c2ccc(NC(=O)c3ccccc3F)cc2)n1, Cn1nc(CC(=O)NC2CCCCCCCCCCC2)c2ccccc2c1=O, Cc1nn(C)cc1CN(C)C(=O)c1nn2c(c1Cl)NC(c1cccs1)CC2C(F)(F)F (stereo unspecified), CN(Cc1ccccc1)C(=O)COC(=O)c1ccc2c(c1)OCO2, c1cncc(-c2nc(-n3ccnc3)c3ccccc3n2)c1

From PubChem BioAssay AID1030 (National Center for Advancing Translational Sciences (NCATS), 2008)
